Assay results taken from the supplement of paper PMC8728848.
This excerpt belongs to a sample that is enriched for the strongest signals.

What follows are substances tested on Neu5Ac(a2-6)Gal(b1-4)GlcNAc(b1-2)Man(a1-3)[Neu5Ac(a2-6)Gal(b1-4)GlcNAc(b1-2)Man(a1-6)]Man(b1-4)GlcNAc(b1-4)GlcNAc (assay: glycan array binding signal (z-score within array); higher = stronger binding). Settings: glycan notation: IUPAC condensed, linker removed.
Method in brief: (§1)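 The binding signal is a Z-score computed within each array and averaged over linkers. Arrays of the same protein sequence at different concentrations or buffers were also averaged together. Data originate from 3228 arrays in the Consortium for Functional Glycomics database, kept only where the protein sequence was available.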
In the case of “M-Ficolin G221F A256V (Homo sapiens) (chain not printed)”, the “glycan array binding signal (z-score)” value was -0.284.
For “Meso764 (Homo sapiens) (chain not printed)”, the “glycan array binding signal (z-score)” value was 0.293.
For “Siglec-2 (Homo sapiens) (chain not printed)”, the “glycan array binding signal (z-score)” value was 5.85.

What follows are substances tested on Neu5Ac(a2-6)Gal(b1-4)GlcNAc(b1-2)Man(a1-6)[Gal(b1-4)GlcNAc(b1-2)Man(a1-3)]Man(b1-4)GlcNAc(b1-4)GlcNAc in the same assay as above. Settings: glycan notation: IUPAC condensed, linker removed.
Method in brief: as §1
In the case of “M-Ficolin A256V (Homo sapiens) (chain not printed)”, the “glycan array binding signal (z-score)” value was -0.118.
For “M-Ficolin (Homo sapiens) (chain not printed)”, the “glycan array binding signal (z-score)” value was -0.337.
“M-Ficolin G221F (Homo sapiens) (chain not printed)” was tested, and the “glycan array binding signal (z-score)” value was -0.154.
In the case of “Siglec-2 (Homo sapiens) (chain not printed)”, the “glycan array binding signal (z-score)” value was 0.022.

These substances were tested on Neu5Ac(a2-6)Gal(b1-4)GlcNAc(b1-3)Gal(b1-4)GlcNAc(b1-3)Gal(b1-4)GlcNAc in the same assay as above. Settings: glycan notation: IUPAC condensed, linker removed.
Method in brief: as §1
For “CLEC-2 (Homo sapiens) (chain not printed)”, the “glycan array binding signal (z-score)” value was -0.536.
For “H-Ficolin (Homo sapiens) (chain not printed)”, the “glycan array binding signal (z-score)” value was 1.29.
In the case of “Siglec-2 (Homo sapiens) (chain not printed)”, the “glycan array binding signal (z-score)” value was 3.68.

Each substance was assayed on Neu5Ac(a2-6)Gal(b1-4)GlcNAc(b1-3)Gal(b1-4)GlcNAc in the same assay as above. Settings: glycan notation: IUPAC condensed, linker removed.
Method in brief: as §1
In the case of “M-Ficolin (Homo sapiens) (chain not printed)”, the “glycan array binding signal (z-score)” value was -0.228.
With “Gal 3 (Homo sapiens) (chain not printed)” the “glycan array binding signal (z-score)” value was 0.622.
In the case of “M-Ficolin Y271F (Homo sapiens) (chain not printed)”, the “glycan array binding signal (z-score)” value was -0.445.

These substances were tested on Neu5Ac(a2-6)Gal(b1-4)GlcNAc(b1-3)Gal(b1-4)[Fuc(a1-3)]GlcNAc(b1-3)Gal(b1-4)[Fuc(a1-3)]GlcNAc in the same assay as above. Settings: glycan notation: IUPAC condensed, linker removed.
Method in brief: as §1
“H-Ficolin (Homo sapiens) (chain not printed)” was tested, and the “glycan array binding signal (z-score)” value was -0.303.
“Meso764 (Homo sapiens) (chain not printed)” was tested, and the “glycan array binding signal (z-score)” value was -0.228.
With “M-Ficolin G221F (Homo sapiens) (chain not printed)” the “glycan array binding signal (z-score)” value was -0.18.

The substances below were run on Neu5Ac(a2-6)Gal(b1-4)GlcNAc6S in the same assay as above. Settings: glycan notation: IUPAC condensed, linker removed.
Method in brief: as §1
In the case of “Galectin-8 C-terminal CRD (Homo sapiens) (chain not printed)”, the “glycan array binding signal (z-score)” value was -0.265.
For “CLEC-2 (Homo sapiens) (chain not printed)”, the “glycan array binding signal (z-score)” value was -0.144.
With “Siglec-2 (Homo sapiens) (chain not printed)” the “glycan array binding signal (z-score)” value was 13.
“Gal 8-short (Homo sapiens) (chain not printed)” was tested, and the “glycan array binding signal (z-score)” value was -0.667.

These substances were tested on Neu5Ac(a2-6)Gal in the same assay as above. Settings: glycan notation: IUPAC condensed, linker removed.
Method in brief: as §1
With “Collectin K1 (Homo sapiens) (chain not printed)” the “glycan array binding signal (z-score)” value was -0.151.
In the case of “NCAM1 (Homo sapiens) (chain not printed)”, the “glycan array binding signal (z-score)” value was 0.518.
With “Gal 8 long (Homo sapiens) (chain not printed)” the “glycan array binding signal (z-score)” value was -0.158.
“Meso764 (Homo sapiens) (chain not printed)” was tested, and the “glycan array binding signal (z-score)” value was -0.302.
“M-Ficolin G221F (Homo sapiens) (chain not printed)” was tested, and the “glycan array binding signal (z-score)” value was -0.136.
